Assay results from PubChem BioAssay AID485281 (National Center for Advancing Translational Sciences (NCATS), 2010).
Out of some 350,000 compounds screened, about 260 (0.074%) were called active. The shares of active, inactive and inconclusive entries below differ from those in the screen. The call rests on the fitted dose curve; in most records, active means well fitted inhibition curve with a large enough effect; inconclusive means small, poorly fitted or top-dose-only effect; inactive means no such curve, though single readings can be large or run the other way. Where the call is inconclusive, the potency comes from a doubtful curve fit.

biological target: Ferritin light chain (Equus caballus) (UniProt P02791); experiment: qHTS Assay for Identification of Novel General Anesthetics; details: apoferritin/1-aminoanthracene competitive binding, fluorescence; series mostly up to 77.5 µM; further: nearly all actives have a fitted effect of over 20% in size
Summary of the method: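 Horse-spleen apoferritin (10 uM) was mixed with 50% saturated 1-aminoanthracene in PBS, exposed to compounds for 10 min at room temperature, and read for fluorescence (ex 380 nm, em 535 nm). Competitive displacement was fitted with a four-parameter Hill equation.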
Potency means the concentration at half of the fitted maximal effect; tags describe the fitted curve by direction and shape.

UniProt P02791, sequence (P02791 whole entry, looked up): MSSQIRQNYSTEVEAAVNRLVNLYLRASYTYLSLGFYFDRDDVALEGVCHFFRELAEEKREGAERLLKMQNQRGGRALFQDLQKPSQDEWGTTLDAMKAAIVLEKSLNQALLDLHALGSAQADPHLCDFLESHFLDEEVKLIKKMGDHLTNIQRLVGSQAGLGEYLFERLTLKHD

Compound	Potency
COc1ccc(N2CCN(Cc3nc(-c4ccccc4)no3)CC2)cc1	inconclusive: 28.2 µM [inhibitor, partial curve]
CC1Cc2ccccc2N1C(=O)CSc1nnnn1-c1ccc2c(c1)OCCO2 (configuration not stated)	inconclusive: 2.24 µM [inhibitor, full curve]
CCOc1cc(/C=N/NC(=O)Cn2nc([N+](=O)[O-])cc2C)cc(Br)c1OCc1ccccc1F	inconclusive: 6.31 µM [inhibitor, full curve, poor fit]
Cn1c(CNc2nc(-c3ccccc3)cs2)nnc1SCC(=O)c1ccccc1	inconclusive: 17.8 µM [inhibitor, partial curve]
O=C(NCC(=O)N1CCN(c2ccccc2)CC1)c1ccco1	inactive
C#CC(CC)(CC)NC(=S)Nc1ccc(S(N)(=O)=O)cc1	inconclusive: 39.8 µM [inhibitor, partial curve]
O=C(N/N=C1/C(=O)c2cccc3cccc1c23)c1ccc(Cl)cc1	inconclusive: 44.7 µM [inhibitor, partial curve, poor fit]
O=C(Nc1ccc(F)cc1)c1cccc(N2C(=O)C3C4CCC(C4)C3C2=O)c1 (configuration not stated)	inconclusive: 31.6 µM [inhibitor, single point]
O=C(COc1ccccc1)Nc1nc(-c2ccc(S(=O)(=O)N3CCOCC3)cc2)cs1	inactive
CC(C)Sc1ncc(Cl)c(C(=O)Nc2ccc(S(=O)(=O)N3CCCCC3C)cc2)n1 (configuration not stated)	inconclusive: 2 µM [inhibitor, full curve, poor fit]
Cc1ccc(C(=O)N/C(=C\c2ccc(-c3cccc([N+](=O)[O-])c3)o2)C(=O)NCCCN(C)C)cc1	inconclusive: 20 µM [inhibitor, partial curve]
CCSc1nc2sc3c(c2c(=O)[nH]1)CCc1ccccc1-3	inactive
O=C(CCNc1ccc(Cc2ccncc2)cc1)c1ccc([N+](=O)[O-])cc1	inconclusive: 20 µM [inhibitor, partial curve]
CCC(=O)c1ccccc1OCCCN1C(=O)NC(C)(C)C1=O	inactive
Cc1cc(F)ccc1NCc1cccnc1	inconclusive: 28.2 µM [inhibitor, partial curve]
CCOC(=O)c1cccc(NC(=O)c2cc(-c3ccc(Cl)s3)nc3ccccc23)c1	inactive
COc1cnn(-c2ccccc2)c(=O)c1SCc1ccc(Cl)c(Cl)c1	inconclusive: 28.2 µM [inhibitor, partial curve]
O=C(CN1C(=O)NC2(CCCCCC2)C1=O)NC1CCCCCCC1	inconclusive: 8.91 µM [inhibitor, partial curve]
CCCCCCCCCCC(=O)Nc1cccnc1	inconclusive: 31.6 µM [inhibitor, partial curve]
O=C1CC(c2ccc3c(c2)OCO3)c2cc(O)ccc2O1 (configuration not stated)	inconclusive: 31.6 µM [inhibitor, partial curve]
Cc1cc(Cl)cc(Cl)c1OCCOc1cccc2cccnc12	inconclusive: 25.1 µM [inhibitor, partial curve]
CC(/C=N/NC(=O)CSc1ccccn1)=C\c1ccc(C(C)C)cc1	inconclusive: 39.8 µM [inhibitor, partial curve]
O=C(CNC(=O)c1ccccn1)N/N=C/c1ccc2c(c1)OCO2	inconclusive: 8.91 µM [inhibitor, partial curve]

Compound	Potency
Clc1ccccc1OCc1nc(-c2ccc(Br)o2)no1	inconclusive: 22.4 µM [inhibitor, partial curve]
O=C(Cc1cccs1)N1CCCC(c2nc(-c3ccc(S(=O)(=O)N4CCCC4)cc3)no2)C1 (configuration not stated)	inconclusive: 15.8 µM [inhibitor, partial curve]
CCCn1ccc2c(OCC(=O)Nc3ccc(F)cc3F)cccc2c1=O	inactive
COC(=O)c1ccc(C(NC(=O)OCc2ccccc2)/C(=C/[C@@H](C)C(=O)N[C@@H](CO)Cc2ccccc2)c2cccnc2)cc1 (some centres not stated)	inconclusive: 28.2 µM [inhibitor, single point]
Cc1ccc(C(=O)N/C(=C\c2cn(S(=O)(=O)N(C)C)c3ccccc23)C(=O)NCCCn2ccnc2)cc1	inactive
COc1ccc(NC(=O)c2ccco2)cc1NC(=O)COc1ccccc1Cl	inactive
COc1ccc(N2CCN(c3oc(-c4ccccc4OC)nc3C#N)CC2)cc1	inactive
COc1cccc(CN2CCC(C(=O)N3CCN(Cc4ccc5c(c4)OCO5)CC3)CC2)c1	inactive
C=CC[n+]1c(-c2ccc(OC)c(OC)c2)csc1NNC(=O)Nc1ccccc1	inconclusive: 25.1 µM [inhibitor, partial curve]
CCOC(=O)C(NC(=O)c1ccccc1)(Nc1cccc(C)n1)C(F)(F)F (configuration not stated)	inactive
O=C(N/N=C/c1ccc(O)cc1)Nc1cccc2nsnc12	inconclusive: 22.4 µM [inhibitor, partial curve]
CCOc1ccccc1NS(=O)(=O)c1ccc2oc(=O)c3ncn(C)c3c2c1	inconclusive: 56.2 µM [inhibitor, single point]
CC(C)c1ccc(C2C3=C(COC3=O)Nc3cc4c(cc32)OCO4)cc1 (configuration not stated)	inconclusive: 39.8 µM [inhibitor, partial curve]
O=C(CN(C(=O)CNC(=O)c1ccco1)c1ccc(Cl)c(Cl)c1)NC1CCCCC1	inconclusive: 25.1 µM [inhibitor, partial curve]
COCCn1c(C)cc(C(=O)Cn2nc(C(=O)O)c3ccccc3c2=O)c1C	inconclusive: 28.2 µM [inhibitor, partial curve]
CN(C)c1ccc(CNC(=O)c2cc3ccccn3n2)cc1	inactive
Cc1cc(C)cc(NC(=O)CSc2nnc(COc3ccccc3Cl)o2)c1	inconclusive: 5.01 µM [inhibitor, single point]
Cc1ccc(C)c(NC(=O)CCCN2C(=O)COc3ccc(C)cc32)c1	inconclusive: 35.5 µM [inhibitor, single point]
CO/N=C(\Cn1ncc(N2CCCC2)c(Br)c1=O)c1ccc(Cl)cc1	inconclusive: 1.78 µM [inhibitor, full curve, poor fit]
NC(=O)c1c(NC(=O)c2ccncc2)sc2c1CCCC2	inactive
CC(C)(C)OC(=O)N1CCC(c2c(C(=O)Nc3cccc(C(F)(F)F)c3)cnn2-c2ccc(F)cc2F)CC1	inconclusive: 4.47 µM [inhibitor, full curve, poor fit]
Cc1oc(-c2ccc(Cl)cc2)nc1CS(=O)CC(=O)NCCCN1CCN(Cc2ccccc2)CC1 (configuration not stated)	inactive
Cc1ccc(-n2cnc3c(sc4nccc(N(C)C)c43)c2=O)cc1	inactive

Compound	Potency
COc1nc(-c2ccccc2)c2c(c1C#N)CC(C)(C)OC2	inconclusive: 25.1 µM [inhibitor, partial curve]
O=c1c(-c2ccc3c(c2)OCCO3)coc2cc(O)cc(O)c12	inconclusive: 50.1 µM [inhibitor, single point]
Cc1cc(/C=N\NC(=O)CC(=O)NC2CCCCC2)c(C)n1-c1ccc(Cl)c(Cl)c1	inconclusive: 35.5 µM [inhibitor, partial curve]
CCOC(=O)C1CCN(C(=O)CSc2n[nH]c(-c3ccccc3Cl)n2)CC1	inconclusive: 39.8 µM [inhibitor, single point]
CCOC(=O)c1ccc(S(=O)(=O)NC2CCCCCCC2)n1C	inconclusive: 39.8 µM [inhibitor, single point]
O=C1CN(C(=O)c2ccc(Cl)cc2Cl)C(c2ccc(F)cc2)c2cc(F)ccc2N1 (configuration not stated)	inactive
COc1ccc(CN(Cc2ccc(C(=O)O)cc2)C(=S)Nc2ccccc2Cl)cc1OC	inactive
COc1ccc(C(=O)Nc2ccc(OCc3ccccc3)cc2)cc1[N+](=O)[O-]	inconclusive: 3.55 µM [inhibitor, full curve, poor fit]
Cc1ccc(CCNC(=O)CN2C(=O)COc3ccc(S(=O)(=O)N4CCCCC4)cc32)cc1	inconclusive: 31.6 µM [inhibitor, partial curve]
C[C@@H](/C=C/c1ccc2ccccc2c1)C1COC(=O)C[C@H]1O (some centres not stated)	inactive
CC(C)(C)OC(=O)N1CCC(c2c(C(=O)Nc3ccc4c(c3)OCCO4)cnn2-c2ccc(F)cc2)CC1	inconclusive: 8.91 µM [inhibitor, full curve, poor fit]
CCN(CC)S(=O)(=O)c1ccc2[nH]c(=O)cc(C(=O)Nc3cccc(C(C)=O)c3)c2c1	inconclusive: 22.4 µM [inhibitor, partial curve]
Clc1ccc(Cc2ccc(Cl)nn2)c(Cl)c1	inconclusive: 39.8 µM [inhibitor, partial curve]
CC(C)Cn1c(-c2csc3c2CCCC3)n[nH]c1=S	inconclusive: 25.1 µM [inhibitor, partial curve]
O=C(Cc1ccccc1)N/N=C/c1ccc([N+](=O)[O-])s1	inconclusive: 25.1 µM [inhibitor, partial curve]
CC(=O)c1ccccc1Oc1nc(CN2CCOCC2)nc2scc(-c3cccs3)c12	inconclusive: 35.5 µM [inhibitor, partial curve]
COc1ccc2cc3cc(C(=O)Nc4ccccc4N4CCN(C)CC4)oc3nc2c1	inactive
Cc1ccc(/C=C2\SC(=S)N(CCCC(=O)Nc3ccccc3C(=O)O)C2=O)cc1	inconclusive: 31.6 µM [inhibitor, partial curve]
Clc1ccc(COc2ccccn2)cc1Cl	inactive
C=CCSc1nsc(N)n1	inconclusive: 39.8 µM [inhibitor, partial curve]
O=S(=O)(c1ccccc1)N1CCC(Oc2ccc(-n3cnnn3)cc2)CC1	inactive
